Measured values as given in the supplement of paper PMC3334620.
Over roughly 33,000 sequences, “E-score (-0.5 to 0.5)” has its median near -0.054; the highest 2% begin near 0.39. This is one part of the list.

Each sequence was assayed against Ylr278c (UniProt Q05854) (assay: PBM E-score (8-mer binding enrichment) (E-score (-0.5 to 0.5)); higher = stronger / more preferred TF binding; most listed sequences are background and not binding sites). Details: protein concentration: 200 nM; construct: GST-DNA-binding domain.
Summary of the method: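 PURExpress in vitro transcription/translation supplied GST-tagged yeast transcription factors, either full-length or DNA-binding domain. Applied at about 100-200 nM to universal all-10-mer Agilent arrays double-stranded by primer extension, the bound protein was detected with fluorescent anti-GST. E-scores, modified Wilcoxon-Mann-Whitney statistics, were given by the Universal PBM Analysis Suite to ungapped eight-base words pooled with their reverse complements after masliner normalisation.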

| Sequence | PBM E-score |
| --- | --- |
| CGTGTGAA | -0.0243 |
| GCGATCTA | -0.056 |
| CCCTATAA | -0.0302 |
| ACGTACTC | 0.00424 |
| TCCATAAA | -0.212 |
| CGATCCTC | -0.00507 |
| CTCTGGTC | 0.058 |
| AAGGCAGA | -0.156 |
| GTCTCCAC | -0.217 |
| GATCCAGA | -0.0826 |
| CAGCGATA | -0.0473 |
| AGATAATC | 0.15 |
| AATGGTTA | -0.069 |
| CCACGCCG | 0.143 |
| AAGACTAT | -0.207 |
| AAGATTCA | 0.021 |
| GACACAGA | 0.0642 |
| CAGCCTAA | -0.285 |
| AAGGGACT | -0.243 |
| CTCCTCGA | -0.189 |
| ACGGACAC | 0.194 |
| CAACACGG | 0.108 |
| CTTCGCGC | 0.0777 |
| CCAACTAC | -0.0123 |
| CCGCTCAG | 0.0758 |

| Sequence | PBM E-score |
| --- | --- |
| CCATCGAG | -0.0825 |
| TATTAATA | -0.00867 |
| AAGTGGTA | -0.0771 |
| ATTTTTGA | -0.0737 |
| AGGGCTCG | -0.111 |
| CCTCACCA | -0.0339 |
| AAGAAATG | -0.012 |
| ACCGAGGG | -0.184 |
| CCCGGGTC | 0.286 |
| AGCGCGGC | 0.083 |
| CGGGTAAA | 0.156 |
| CTACTCTA | -0.188 |
| CGATTAAA | 0.0584 |
| GATCTGAC | -0.0839 |
| ATTTGGTA | -0.0616 |
| AGCGTTCC | 0.0209 |
| GATTAATC | 0.337 |
| CTATTGAG | -0.213 |
| CATCCTCG | 0.138 |
| ATATTATG | 0.0701 |
| GTCGCTAA | -0.0503 |
| ATATGCAA | -0.0841 |
| CTGGTCCC | -0.263 |
| CCAACGAG | -0.167 |
| AACTATTA | -0.0952 |

| Sequence | PBM E-score |
| --- | --- |
| ACTTAATG | -0.0551 |
| AGGTACTG | -0.188 |
| GGGACCAC | 0.0293 |
| ATTAGACA | -0.251 |
| ACGGAGAT | 0.465 |
| AAATTAAC | 0.0288 |
| AGCCGATG | 0.209 |
| TTTCGAAA | -0.185 |
| CCTCGTTC | -0.00096 |
| TATTACGA | -0.038 |
| ATATTGAT | 0.00448 |
| AATCCCAA | -0.0453 |
| ATCAAACA | -0.115 |
| CACACCTA | 0.0075 |
| CGGGGCCA | 0.249 |
| ACTGGCAT | -0.256 |
| CAATTATG | 0.0405 |
| ACGCATAT | -0.119 |
| TGTAGACA | -0.19 |
| CATGATAA | -0.0695 |
| CGGCTCAG | 0.23 |
| CTGTTCTA | -0.0866 |
| ACGCATAG | -0.0915 |
| CTCGGAAC | 0.381 |
| ATCGTGTA | -0.107 |

| Sequence | PBM E-score |
| --- | --- |
| ACGCATCT | -0.0343 |
| GCATGTCC | 0.14 |
| CAGTCGCA | -0.248 |
| ACCGAATC | 0.159 |
| CTGCCACC | -0.111 |
| ACAAGCGC | 0.114 |
| ACAAGTGG | -0.203 |
| CGATGAAC | 0.058 |
| CCTCGCGA | -0.0607 |
| AGGCGGTC | -0.0519 |
| ATCCGTAC | 0.112 |
| ACATGCAA | -0.0561 |
| CTTAAACC | -0.135 |
| GACAATCA | -0.0295 |
| CACGTGGC | -0.274 |
| CCTGTTTA | -0.023 |
| CGAGTAAG | 0.133 |
| GGACCACC | 0.0421 |
| GGCCCACA | -0.0418 |
| CTTCAAAC | -0.0636 |
| AGCTAGTA | -0.114 |
| GCGATGAA | 0.0129 |
| AGTATTTA | -0.134 |
| AGCTAGCT | -0.257 |
| AACACGGT | 0.0118 |

| Sequence | PBM E-score |
| --- | --- |
| GAGGAGGC | 0.00186 |
| CTGAAACA | -0.112 |
| ATGGTAGA | -0.227 |
| CTTTCTTC | -0.133 |
| CGATGTAG | -0.122 |
| AACAAATT | -0.0211 |
| CTAACGGA | 0.326 |
| GGAACATA | 0.00436 |
| AGAAATAC | 0.116 |
| AGGATACG | -0.244 |
| AGCATGGG | -0.18 |
| GAATGAGA | 0.0345 |
| AATGTGCA | -0.0845 |
| TTGCGAAA | 0.167 |
| AAGTTTCC | 0.136 |
| AAGCAAGC | -0.0811 |
| GTAAATAC | 0.0134 |
| AGTGAGCG | -0.152 |
| GGAGTGCA | 0.196 |
| GAAAAGTA | -0.0739 |
| AGAGCTAG | -0.236 |
| CTAGAGGA | -0.216 |
| GTAGTCAC | -0.148 |
| ACTTCGAT | -0.116 |
| CGCTACTC | 0.116 |

| Sequence | PBM E-score |
| --- | --- |
| AAGGGGTG | -0.21 |
| GCCTGCAA | -0.162 |
| AGTGTAGC | -0.058 |
| GATCTGCC | 0.0547 |
| AAAGAATC | -0.0972 |
| CCGTTCCC | 0.169 |
| ACAGCAAT | -0.00923 |
| GAGCAGCA | 0.0351 |
| ATACGATC | -0.0267 |
| GCGTAGCA | -0.0336 |
| TAACCCTA | -0.34 |
| ACCGCCGT | 0.241 |
| TAGTTTAA | -0.149 |
| CATGCATG | -0.202 |
| AGTGGCCA | -0.214 |
| AACTCATT | 0.0884 |
| CTAAGTAG | -0.222 |
| AGTACCGG | 0.35 |
| AGAATACC | 0.0273 |
| GACCGGGC | 0.214 |
| CGAGACTC | 0.0377 |
| GAGGTCGC | 0.0413 |
| AATTACCA | -0.0424 |
| GCCCATAA | 0.0656 |
| CGCTTACA | -0.112 |

| Sequence | PBM E-score |
| --- | --- |
| CTAACCTA | -0.0668 |
| GAATCGAC | 0.205 |
| GAGACTGA | -0.0208 |
| CTGTAGCC | -0.204 |
| GGGCAGGA | -0.176 |
| AAGCTTCC | -0.0978 |
| ATTATGTC | -0.243 |
| GCTCACCA | -0.236 |
| TGTAGCAA | 0.0848 |
| GCTCCCCA | -0.302 |
| CTTGGGCA | -0.0334 |
| ACCCTGCA | 0.00052 |
| CAACATGG | -0.171 |
| ATGGCACG | 0.0729 |
| AACGATTA | -0.0984 |
| ATCGGCGA | 0.327 |
| ATACGTAT | 0.0699 |
| ATAGATTC | -0.177 |
| GGGACGTA | 0.00257 |
| AAAAGTGT | -0.113 |
| ATTTTACG | 0.0886 |
| CGAATGAG | 0.0748 |
| ACTGACAT | -0.183 |
| CCTCTAAC | -0.103 |
| GGCTAAAA | -0.0862 |

| Sequence | PBM E-score |
| --- | --- |
| AGACGAGA | -0.181 |
| ATAGATCC | 0.119 |
| TAATAACA | -0.0361 |
| GCCATGTA | -0.0791 |
| ACGATCCA | -0.00831 |
| CAGTAATC | -0.112 |
| AGACAAAG | -0.172 |
| AACTTTAT | 0.00199 |
| CCACTCCG | 0.437 |
| GTATTGGA | -0.0601 |
| AAGGTTGG | -0.12 |
| GATTGAGA | 0.0599 |
| CTTAGTCA | -0.184 |
| AAGCTACG | -0.227 |
| AACGATAC | -0.245 |
| GCATCGCA | -0.0161 |
| AATTAGAT | -0.0362 |
| GCCGAAAC | 0.29 |
| GATAGTCC | 0.0524 |
| GCAATGCC | 0.199 |
| CCACGTAA | -0.101 |
| ACCGGATC | 0.354 |
| ATATTCAA | 0.00075 |
| GGACAAGA | 0.0181 |
| CCTAAGAA | -0.261 |

| Sequence | PBM E-score |
| --- | --- |
| GTCCCCCA | -0.315 |
| CTACACAC | -0.114 |
| AATAAGCG | -0.0642 |
| CCCGTAGC | -0.061 |
| AATTCACA | -0.0773 |
| CAACGTTA | -0.186 |
| GACGGGGC | 0.123 |
| GTATTCCA | -0.0723 |
| CGAAGTGC | 0.118 |
| CCTAGGCG | -0.222 |
| TTACTAAA | -0.221 |
| ATAATGGA | -0.0453 |
| GTCAGAAA | -0.243 |
| ACACAACC | -0.0894 |
| CATGATTC | -0.107 |
| AATAAAAC | -0.105 |
| GGCAAGTA | -0.0613 |
| CGTGCAGC | 0.0102 |
| GGGGGCCA | -0.0264 |
